# Experimental data taken from US20260166128A1, “HUMAN AMYLIN ANALOG, AND DERIVATIVE THEREOF AND USE THEREOF” (priority 2022, published 2026).
# Part of at least one peptide drawing is inferred or uncertain, most often the ends. Numbered stars: 1 amine (or outer) side, 2 acyl side, 3 side chain; on linkers, the order of the positions; unused ones are H or OH. Bridge positions count the residues as written; N and C are the ends. Square brackets hold non-standard residues; d marks the D form. Side chains are listed from the residue outwards. Peptide text beside a SMILES is read from it. * marks the point of attachment. C20 diacid = O=C(O)CCCCCCCCCCCCCCCCCCC(=O)*; C18 diacid = O=C(O)CCCCCCCCCCCCCCCCC(=O)*; γGlu = O=C(O)[C@H](CCC(=O)[*:2])N[*:1]; Hyp = O=C(O)[C@@H]1C[C@@H](O)CN1; AEEA = NCCOCCOCC(=O)O
# Assay: Freeze-thaw stability of derivatives (freeze-thaw yield by liquid chromatography)
# Type: physicochemical
# Conditions: for Dissolution property: appearance after dissolution at 0.2 mg/ml in 20 mM phosphate buffer solution (PB) (pH 7.0); for Freeze storage property: appearance after overnight storage at −20° C. and thawing to room temperature, 0.2 mg/ml in 20 mM PB (pH 7.0); for Freeze storage yield: concentration of polypeptide after freezing and thawing / concentration before, by liquid chromatography, −20° C. overnight
# Procedure, shortened: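 Lyophilised peptide derivative dissolved at 0.2 mg/ml in 20 mM phosphate buffer, pH 7.0, frozen overnight at −20° C, then thawed at room temperature. Peptide concentration before and after freeze-thaw measured by reversed-phase HPLC on centrifuged supernatant; yield = post-thaw/pre-thaw concentration.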
Compound,Dissolution property,Freeze storage property,Freeze storage yield [%]
CC[C@H](C)[C@H](NC(=O)[C@@H]1CCCN1C(=O)[C@H](CCCCNC(=O)COCCOCCNC(=O)CC[C@H](NC(=O)CCCCCCCCCCCCCCCCCCC(=O)O)C(=O)O)NC(=O)[C@H](CC(C)C)NC(=O)[C@H](CC(N)=O)NC(=O)[C@H](CC(N)=O)NC(=O)[C@H](CO)NC(=O)[C@H](CO)NC(=O)[C@H](Cc1c[nH]cn1)NC(=O)[C@H](CCCNC(=N)N)NC(=O)[C@H](CC(C)C)NC(=O)[C@H](Cc1ccccc1)NC(=O)[C@H](CC(=O)O)NC(=O)[C@H](C)NC(=O)[C@H](CC(C)C)NC(=O)[C@H](CCCNC(=N)N)NC(=O)[C@H](CCC(N)=O)NC(=O)[C@@H](NC(=O)[C@H](C)NC(=O)[C@@H]1CSSC[C@H](NC(=O)[C@@H](N)CCCNC(=N)N)C(=O)N[C@@H](CC(N)=O)C(=O)N[C@@H]([C@@H](C)O)C(=O)N[C@@H](C)C(=O)N[C@@H]([C@@H](C)O)C(=O)N1)[C@@H](C)O)C(=O)N[C@@H](CC(C)C)C(=O)N1CCC[C@H]1C(=O)N1CCC[C@H]1C(=O)N[C@H](C(=O)N[C@@H](CC(N)=O)C(=O)N[C@H](C(=O)NCC(=O)N[C@@H](CO)C(=O)N[C@@H](CC(N)=O)C(=O)N[C@H](C(=O)N1C[C@H](O)C[C@H]1C(N)=O)[C@@H](C)O)C(C)C)[C@@H](C)O [PD106] (H-RCNTATCATQRLADFLRHSSNNLK([AEEA-γGlu-C20 diacid])PILPPTNVGSNT[Hyp]-NH2; disulfide 2-7),Clear,Clear,99.24
CC[C@H](C)[C@H](NC(=O)[C@@H]1CCCN1C(=O)[C@H](CCCCNC(=O)CC[C@H](NC(=O)CCCCCCCCCCCCCCCCC(=O)O)C(=O)O)NC(=O)[C@H](CC(C)C)NC(=O)[C@H](CC(N)=O)NC(=O)[C@H](CC(N)=O)NC(=O)[C@H](CO)NC(=O)[C@H](CO)NC(=O)[C@H](Cc1c[nH]cn1)NC(=O)[C@H](CCCNC(=N)N)NC(=O)[C@H](CC(C)C)NC(=O)[C@H](Cc1ccccc1)NC(=O)[C@H](CC(=O)O)NC(=O)[C@H](C)NC(=O)[C@H](CC(C)C)NC(=O)[C@H](CCCNC(=N)N)NC(=O)[C@H](CCC(N)=O)NC(=O)[C@@H](NC(=O)[C@H](C)NC(=O)[C@@H]1CSSC[C@H](NC(=O)[C@@H](N)CCCNC(=N)N)C(=O)N[C@@H](CC(N)=O)C(=O)N[C@@H]([C@@H](C)O)C(=O)N[C@@H](C)C(=O)N[C@@H]([C@@H](C)O)C(=O)N1)[C@@H](C)O)C(=O)N[C@@H](CC(C)C)C(=O)N1CCC[C@H]1C(=O)N1CCC[C@H]1C(=O)N[C@H](C(=O)N[C@@H](CC(N)=O)C(=O)N[C@H](C(=O)NCC(=O)N[C@@H](CO)C(=O)N[C@@H](CC(N)=O)C(=O)N[C@H](C(=O)N1C[C@H](O)C[C@H]1C(N)=O)[C@@H](C)O)C(C)C)[C@@H](C)O [PD107] (H-RCNTATCATQRLADFLRHSSNNLK([γGlu-C18 diacid])PILPPTNVGSNT[Hyp]-NH2; disulfide 2-7),Clear,Clear,111.06
CC[C@H](C)[C@H](NC(=O)[C@@H]1CCCN1C(=O)[C@H](CCCCNC(=O)COCCOCCNC(=O)COCCOCCNC(=O)CC[C@H](NC(=O)CCCCCCCCCCCCCCCCC(=O)O)C(=O)O)NC(=O)[C@H](CC(C)C)NC(=O)[C@H](CC(N)=O)NC(=O)[C@H](CC(N)=O)NC(=O)[C@H](CO)NC(=O)[C@H](CO)NC(=O)[C@H](Cc1c[nH]cn1)NC(=O)[C@H](CCCNC(=N)N)NC(=O)[C@H](CC(C)C)NC(=O)[C@H](Cc1ccccc1)NC(=O)[C@H](CC(=O)O)NC(=O)[C@H](C)NC(=O)[C@H](CC(C)C)NC(=O)[C@H](CCCNC(=N)N)NC(=O)[C@H](CCC(N)=O)NC(=O)[C@@H](NC(=O)[C@H](C)NC(=O)[C@@H]1CSSC[C@H](NC(=O)[C@@H](N)CCCNC(=N)N)C(=O)N[C@@H](CC(N)=O)C(=O)N[C@@H]([C@@H](C)O)C(=O)N[C@@H](C)C(=O)N[C@@H]([C@@H](C)O)C(=O)N1)[C@@H](C)O)C(=O)N[C@@H](CC(C)C)C(=O)N1CCC[C@H]1C(=O)N1CCC[C@H]1C(=O)N[C@H](C(=O)N[C@@H](CC(N)=O)C(=O)N[C@H](C(=O)NCC(=O)N[C@@H](CO)C(=O)N[C@@H](CC(N)=O)C(=O)N[C@H](C(=O)N1C[C@H](O)C[C@H]1C(N)=O)[C@@H](C)O)C(C)C)[C@@H](C)O [PD109] (H-RCNTATCATQRLADFLRHSSNNLK([AEEA-AEEA-γGlu-C18 diacid])PILPPTNVGSNT[Hyp]-NH2; disulfide 2-7),Clear,Clear,100.53
CC[C@H](C)[C@H](NC(=O)[C@@H]1CCCN1C(=O)CNC(=O)[C@H](CCCCNC(=O)COCCOCCNC(=O)CC[C@H](NC(=O)CCCCCCCCCCCCCCCCCCC(=O)O)C(=O)O)NC(=O)[C@H](CC(N)=O)NC(=O)[C@H](CC(N)=O)NC(=O)[C@H](CO)NC(=O)[C@H](CO)NC(=O)[C@H](Cc1c[nH]cn1)NC(=O)[C@H](CCCNC(=N)N)NC(=O)[C@H](CC(C)C)NC(=O)[C@H](Cc1ccccc1)NC(=O)[C@H](CC(=O)O)NC(=O)[C@H](C)NC(=O)[C@H](CC(C)C)NC(=O)[C@H](CCCNC(=N)N)NC(=O)[C@H](CCC(N)=O)NC(=O)[C@@H](NC(=O)[C@H](C)NC(=O)[C@@H]1CSSC[C@H](NC(=O)[C@@H](N)CCCNC(=N)N)C(=O)N[C@@H](CC(N)=O)C(=O)N[C@@H]([C@@H](C)O)C(=O)N[C@@H](C)C(=O)N[C@@H]([C@@H](C)O)C(=O)N1)[C@@H](C)O)C(=O)N[C@@H](CC(C)C)C(=O)N1CCC[C@H]1C(=O)N1CCC[C@H]1C(=O)N[C@H](C(=O)N[C@@H](CC(N)=O)C(=O)N[C@H](C(=O)NCC(=O)N[C@@H](CO)C(=O)N[C@@H](CC(N)=O)C(=O)N[C@H](C(=O)N1C[C@H](O)C[C@H]1C(N)=O)[C@@H](C)O)C(C)C)[C@@H](C)O [PD110] (H-RCNTATCATQRLADFLRHSSNNK([AEEA-γGlu-C20 diacid])GPILPPTNVGSNT[Hyp]-NH2; disulfide 2-7),Clear,Clear,109.34
CC[C@H](C)[C@H](NC(=O)[C@@H]1CCCN1C(=O)CNC(=O)[C@H](CCCCNC(=O)COCCOCCNC(=O)CC[C@H](NC(=O)CCCCCCCCCCCCCCCCC(=O)O)C(=O)O)NC(=O)[C@H](CC(N)=O)NC(=O)[C@H](CC(N)=O)NC(=O)[C@H](CO)NC(=O)[C@H](CO)NC(=O)[C@H](Cc1c[nH]cn1)NC(=O)[C@H](CCCNC(=N)N)NC(=O)[C@H](CC(C)C)NC(=O)[C@H](Cc1ccccc1)NC(=O)[C@H](CC(=O)O)NC(=O)[C@H](C)NC(=O)[C@H](CC(C)C)NC(=O)[C@H](CCCNC(=N)N)NC(=O)[C@H](CCC(N)=O)NC(=O)[C@@H](NC(=O)[C@H](C)NC(=O)[C@@H]1CSSC[C@H](NC(=O)[C@@H](N)CCCNC(=N)N)C(=O)N[C@@H](CC(N)=O)C(=O)N[C@@H]([C@@H](C)O)C(=O)N[C@@H](C)C(=O)N[C@@H]([C@@H](C)O)C(=O)N1)[C@@H](C)O)C(=O)N[C@@H](CC(C)C)C(=O)N1CCC[C@H]1C(=O)N1CCC[C@H]1C(=O)N[C@H](C(=O)N[C@@H](CC(N)=O)C(=O)N[C@H](C(=O)NCC(=O)N[C@@H](CO)C(=O)N[C@@H](CC(N)=O)C(=O)N[C@H](C(=O)N1C[C@H](O)C[C@H]1C(N)=O)[C@@H](C)O)C(C)C)[C@@H](C)O [PD111] (H-RCNTATCATQRLADFLRHSSNNK([AEEA-γGlu-C18 diacid])GPILPPTNVGSNT[Hyp]-NH2; disulfide 2-7),Clear,Clear,105.17
CC[C@H](C)[C@H](NC(=O)[C@@H]1CCCN1C(=O)CNC(=O)[C@H](CC(C)C)NC(=O)[C@H](CCCCNC(=O)COCCOCCNC(=O)CC[C@H](NC(=O)CCCCCCCCCCCCCCCCCCC(=O)O)C(=O)O)NC(=O)[C@H](CC(N)=O)NC(=O)[C@H](CO)NC(=O)[C@H](CO)NC(=O)[C@H](Cc1c[nH]cn1)NC(=O)[C@H](CCCNC(=N)N)NC(=O)[C@H](CC(C)C)NC(=O)[C@H](Cc1ccccc1)NC(=O)[C@H](CC(=O)O)NC(=O)[C@H](C)NC(=O)[C@H](CC(C)C)NC(=O)[C@H](CCCNC(=N)N)NC(=O)[C@H](CCC(N)=O)NC(=O)[C@@H](NC(=O)[C@H](C)NC(=O)[C@@H]1CSSC[C@H](NC(=O)[C@@H](N)CCCNC(=N)N)C(=O)N[C@@H](CC(N)=O)C(=O)N[C@@H]([C@@H](C)O)C(=O)N[C@@H](C)C(=O)N[C@@H]([C@@H](C)O)C(=O)N1)[C@@H](C)O)C(=O)N[C@@H](CC(C)C)C(=O)N1CCC[C@H]1C(=O)N1CCC[C@H]1C(=O)N[C@H](C(=O)N[C@@H](CC(N)=O)C(=O)N[C@H](C(=O)NCC(=O)N[C@@H](CO)C(=O)N[C@@H](CC(N)=O)C(=O)N[C@H](C(=O)N1C[C@H](O)C[C@H]1C(N)=O)[C@@H](C)O)C(C)C)[C@@H](C)O [PD112] (H-RCNTATCATQRLADFLRHSSNK([AEEA-γGlu-C20 diacid])LGPILPPTNVGSNT[Hyp]-NH2; disulfide 2-7),Clear,Clear,98.62
CC[C@H](C)[C@H](NC(=O)[C@@H]1CCCN1C(=O)CNC(=O)[C@H](CC(C)C)NC(=O)[C@H](CCCCNC(=O)COCCOCCNC(=O)CC[C@H](NC(=O)CCCCCCCCCCCCCCCCC(=O)O)C(=O)O)NC(=O)[C@H](CC(N)=O)NC(=O)[C@H](CO)NC(=O)[C@H](CO)NC(=O)[C@H](Cc1c[nH]cn1)NC(=O)[C@H](CCCNC(=N)N)NC(=O)[C@H](CC(C)C)NC(=O)[C@H](Cc1ccccc1)NC(=O)[C@H](CC(=O)O)NC(=O)[C@H](C)NC(=O)[C@H](CC(C)C)NC(=O)[C@H](CCCNC(=N)N)NC(=O)[C@H](CCC(N)=O)NC(=O)[C@@H](NC(=O)[C@H](C)NC(=O)[C@@H]1CSSC[C@H](NC(=O)[C@@H](N)CCCNC(=N)N)C(=O)N[C@@H](CC(N)=O)C(=O)N[C@@H]([C@@H](C)O)C(=O)N[C@@H](C)C(=O)N[C@@H]([C@@H](C)O)C(=O)N1)[C@@H](C)O)C(=O)N[C@@H](CC(C)C)C(=O)N1CCC[C@H]1C(=O)N1CCC[C@H]1C(=O)N[C@H](C(=O)N[C@@H](CC(N)=O)C(=O)N[C@H](C(=O)NCC(=O)N[C@@H](CO)C(=O)N[C@@H](CC(N)=O)C(=O)N[C@H](C(=O)N1C[C@H](O)C[C@H]1C(N)=O)[C@@H](C)O)C(C)C)[C@@H](C)O [PD113] (H-RCNTATCATQRLADFLRHSSNK([AEEA-γGlu-C18 diacid])LGPILPPTNVGSNT[Hyp]-NH2; disulfide 2-7),Clear,Clear,77.90
